Measured values taken from article PMC3179504 (PLoS ONE, 2011).

Experiments:
full-length NK1R = full-length NK1R (Homo sapiens, UniProt P25103); assay: Real Time Cell Electronic Sensing (RT-CES) impedance, U373MG cells; format: cell-based; details: SP 100 nM; for effect of colchicine on SP-induced impedance changes: colchicine 10 µM, 1 hour preincubation; for effect of ML-9 on SP-induced impedance decrease: ML9 50 µM
U373MG cells = assay: SP-induced membrane blebbing in U373MG cells (phase-contrast / DIC / confocal microscopy); format: cell-based, human
[1] = tested on: myosin light chain 2 (MLC2) (Ser19); assay: MLC phosphorylation, Western blot, U373MG cells; format: cell-based, human; details: 1 hour, SP 100 nM, 1 min
[2] = U373MG, colchicine 2 µM pretreatment

Sequence of full-length NK1R (P25103 whole entry): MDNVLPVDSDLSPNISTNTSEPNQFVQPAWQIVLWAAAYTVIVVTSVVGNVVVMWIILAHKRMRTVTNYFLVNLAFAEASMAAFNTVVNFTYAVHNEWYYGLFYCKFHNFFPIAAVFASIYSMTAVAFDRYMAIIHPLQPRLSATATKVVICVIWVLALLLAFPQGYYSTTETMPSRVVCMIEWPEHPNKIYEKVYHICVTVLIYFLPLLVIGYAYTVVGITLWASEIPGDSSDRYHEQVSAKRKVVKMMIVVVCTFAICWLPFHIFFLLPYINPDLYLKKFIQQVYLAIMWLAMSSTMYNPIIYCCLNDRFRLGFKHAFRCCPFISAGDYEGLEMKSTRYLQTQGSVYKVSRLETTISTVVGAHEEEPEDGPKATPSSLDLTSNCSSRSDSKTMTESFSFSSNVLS

COc1cc2c(c(OC)c1OC)-c1ccc(OC)c(=O)cc1[C@@H](NC(C)=O)CC2 [colchicine]
effect of colchicine on SP-induced impedance changes (full-length NK1R; three independent experiments): blocked the changes in impedance | effect of colchicine on SP-induced impedance changes (full-length NK1R; three independent experiments, listed as Colchicine): inhibited cell impedance changes | cell morphology after colchicine (U373MG cells; [2]): flat morphology | effect of colchicine on SP-induced blebbing (U373MG cells; [2]): SP treatment failed to cause the formation of membrane blebs

C3 transferase
effect of C3 transferase on SP-induced blebbing (U373MG cells): completely blocked membrane blebbing

COc1ccc2c(c1)CC[C@@H]1[C@@H]2CC[C@]2(C)[C@@H](NCCCCCCN3C(=O)C=CC3=O)CC[C@@H]12 [U73122]
effect of U73122 on SP-induced impedance changes (full-length NK1R; U73122 10 µM, 60 min preincubation, three independent experiments): no effect on the changes in impedance

O=S(=O)(c1cccc2c(Cl)cccc12)N1CCCNCC1 [ML-9]
effect of ML-9 on SP-induced impedance decrease (full-length NK1R; 60 min preincubation, three independent experiments): completely blocked | effect of ML-9 on SP-induced impedance decrease (full-length NK1R; 60 min preincubation, three independent experiments, listed as ML9): greatly inhibited | effect of ML9 on MLC phosphorylation ([1]; ML9 10 µM): decrease in MLC phosphorylation | effect of ML-9 on SP-induced bleb formation (U373MG cells; U373MG, MLCK inhibitor ML-9, SP 100 nM): completely blocked bleb formation

Oc1ccc2ccccc2c1SSc1c(O)ccc2ccccc12 [IPA3, 1, 1′-Dithiodi-2-naphthtol]
effect of IPA3 on SP-induced impedance change (in words) (full-length NK1R; IPA3 20 µM, 60 min preincubation, * p<0.05): significant decrease in the impedance change | SP-induced impedance change in presence of IPA3 (full-length NK1R; IPA3 20 µM, 60 min preincubation, mean ± SEM of three independent experiments): 0.07±0.03 | effect of IPA3 on MLC phosphorylation ([1]; IPA3 20 µM): did not affect MLC phosphorylation

C[C@@H](N)[C@H]1CC[C@H](C(=O)Nc2ccncc2)CC1 [Y27632]
direction of impedance change after SP in presence of Y27632 (full-length NK1R; Y27632 10 µM, 60 min preincubation): cell impedance increased after treatment with SP | effect of Y27632 on SP-induced impedance decrease (full-length NK1R; Y27632 10 µM, 60 min preincubation, three independent experiments): abolished | effect of Y27632 on MLC phosphorylation ([1]; Y27632 10 µM): decrease in MLC phosphorylation | effect of Y27632 on SP-induced blebbing (U373MG cells; U373MG, ROCK inhibitor Y27632, SP 100 nM): prevented SP-induced blebbing
